Laboratory results as given in the RNAGym collection of RNA variant scans (doi:10.7554/elife.90254).
Read counts are not given, so values of variants with three or more changes are uncertain.

B1: OR4K15 (parent)
chain: GUUAACGGUCAUAGGCCAUGGAAACUAGGAGCACCAUUUCGCUGCCAGUGAAGAAAUGAACAAAGAAAAUCUGGGCCAGGCAGGCAUCAAAAGAAAUAGUCUUGCGCUCAACCAGAAAGUCUGUAAUCAUUUUAAGGGUA

Variants of: B1
Experiment: self-cleavage, relative activity (ratio to wild type); higher = more cleavage; in vitro, sequencing; the parent is a self-cleaving ribozyme

Variant	self-cleavage
A36U A52G A86G U102C	1.91
A11C A56G A82G A125G	0.23
U26C U87C A89G A91G U103C G119A U130C	0.03
A11G A66G A118U	0.7
A5G G20A U72A A78G	0.48
A51G U57C A67G	1.13
C113U A114C U132C	0
U19C A62U U72C	0.18
A24G A92G A140U	1.65
A11G A47G A95G	1.34
A59G A67G A98U	1.36
U43C A68G A91G A92G	1.2
A18G A23G U102C	1.78
U49C A96G U122G	2.58
U3C A114G A116G	0.13
U57C A89U U122C	1.18
U37G U87C A96G	2.95
U43C A47G A96U	1.6
U39C G48A A68G	0.76
A59G C109U U132C	0.24
U12C A13U U49C U139A	0.39

Variant	self-cleavage
A66G A69G A129C	0.9
G1A A52G A90G	1.68
U38C A89G U132C	1.52
U3C A55G A94G U100C U120C	1.62
A86G A125G A140G	0.75
A110U A111G A114U A118G	0
A13G A52G A90G	0.24
A30G A54G A140G	1.52
U3C A62G G104A	0.01
A24C A86G A118G	1.25
A13U A47U A69C A98G A117G	0.77
U2C U39C A54G U72C U100C A118G	0.15
C34U A56G U122C	1.41
U12A A52G U97C	1.7
A13G U39C A78C C121U	0.39
A55G A90G A91G A110G	0.06
A18G A54U A90G A135U	0.68
C10A A92G A95U A111G	0.05
A13G A59G A78U U127A	0.89
U3G A63G U122C	1.08
A13G U39C U43C	1.66

Variant	self-cleavage
A56G G93A A96G C113U	0.1
A63G U70A A140G	1.37
A18G A22G A24G A92G U124C	0.3
A62G A90G A126G	0.37
A52G A63G A78G U108C U131C	0.01
U38A A78G U120A	0.26
A59G A66U U122C	1.46
A22G A64G A94G	1.89
U43C U72G G83U A90G	0.22
A54G A69C U108C	0.01
A23G A52G A91G G93U	0.51
C32U U37C A52G U70A A92C	0.08
A23G A62G A116G	0.77
C6U A51G A62G U131C A134G	1.51
U37C A51U A55G A78U U102C A114G	0.06
U49A A92U U97C	0.3
A24C A63G U87C U108A	0.01
U2G C10U G28A A114U	0.21
C46U A47C A63U U72G	0.28
A18G A86G U87A U103A	0.14
C6U U43C A54G U87C U103C	0.6

Variant	self-cleavage
U9C A18G A125U U127A A140G	2.5
U9C A69G A82G	0.41
A5G A66G A82G	0.24
A5G A91G U139C	0.36
U3C G28U A33U U37C A67G	1.08
U43C A54G U57A U131C	0.93
U37C U72A G93U A116G A118G U130C U139C A140G	0.01
A33G A91G U103C A118G A135G	0.1
U57A G74A A117U	0.12
A33G A111G U122C	0.07
U12A A52G A110G U120C	0.03
A5G A110G U130C	0.12
G15A A90G U122C	1.04
U49C A69G A94G A111U	0.12
U9C A54G U102C	1.43
U39C A92G A126G	1.3
A63G A111G A118G	0
A4G A30G A67G C81U A111U	0.04
A63G A64C U97C	1.06
G44U A64U A118G A126G	1
U39C A55G A116G	1.05
